Measurements published in PubChem BioAssay AID686978 (National Center for Advancing Translational Sciences (NCATS), 2013).
Where “and” joins values, the source holds several entries; their conditions need not be identical. Equal entries are not always repeated. Hit rate of the full screen: of about 420,000 compounds, about 64,000 (15%) were called active. This list was built around the results that the source calls inconclusive (neither active nor inactive); the mix of calls is not that of the screen. Calls come from the whole dose curve; as a rule, active = well fitted inhibition curve with a large enough effect; inconclusive = small, poorly fitted or top-dose-only effect; inactive = flat fitted curve, though single readings scatter. Potencies of inconclusive entries are left out as doubtful fits.

experiment: qHTS for Inhibitors of human tyrosyl-DNA phosphodiesterase 1 (TDP1): qHTS in cells in absence of CPT; conditions: DT40 Tdp1-/- hTDP1 cells, no CPT, ATP luminescence, 48 h; activity change, negative = growth inhibition: at 46.2 µM (top of the series) unless noted; note: nearly all actives have a fitted effect of over 55% in size
Method in brief: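 Growth kinetics read by CellTiter-Glo luminescence after ≥48 hr at 37 °C. Cells: DT40 Tdp1-/- stably carrying human TDP1, 400 per well, compound exposure in the absence of CPT (DMSO vehicle).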
% is set by controls: 0 for no effect and ±100 for the full control effect; potency is the fitted concentration of half-maximal effect; tags give direction and shape of the fitted curve.

Row | Compound | Potency | activity change, negative = growth inhibition
1 | CCOC(=O)C1=C(C)N=C2SCCC(=O)N2C1c1ccc(OCc2ccccc2)c(OC)c1 (stereo unspecified) | inconclusive [inhibitor, single point] | 
2 | CS(=O)(=O)N1CCN(C(=O)c2ccc(-c3ccccc3)cc2)CC1 | inactive | 
3 | Cc1cc(NC(=O)c2cc(Cl)ccc2Cl)ccc1-c1cc2ccccc2oc1=O | inconclusive [inhibitor, partial curve] | 
4 | Cc1ccc(NC(=O)CSC2=NCCN2)cc1 | active: 18.4 µM | 
5 | CC(=O)c1ccccc1OCCOCCOc1ccccc1C(C)=O | inconclusive [inhibitor, single point] | 
6 | COCCOC(=O)c1ccc(NC(=O)COc2ccc([N+](=O)[O-])cc2)cc1 | inconclusive [inhibitor, single point] | 
7 | CC(=O)C1(C)CCC2C3C=C(C)C4=CC(=O)CCC4(C)C3CCC21C (stereo unspecified) | active: 23.1 µM | 
8 | COc1ccc(-n2cc(CN(C)C3CCOCC3)c(-c3cccc(F)c3)n2)cc1 | active: 18.4 µM | 
9 | NS(=O)(=O)c1ccc(NC(=O)COc2ccc(S(=O)(=O)NC3CCCCC3)cc2)cc1 | inconclusive [inhibitor, partial curve] | 
10 | COc1ccc([N+](=O)[O-])cc1/C=N/NC(=O)CNC(=O)c1cccc(F)c1 | inconclusive [inhibitor, single point] | 
11 | Cc1ccc(-c2nc3c(Cl)cc(C(F)(F)F)cn3c2Cc2cccc(Cl)c2)cc1 | inconclusive [inhibitor, single point] | 
12 | Oc1ccccc1C1CCCCC1c1ccccc1 (stereo unspecified) | inconclusive [inhibitor, single point] | 
13 | Cc1ccc2nc(N(CCCN(C)C)C(=O)c3ccc4ncsc4c3)sc2c1 | inconclusive [inhibitor, single point] | 
14 | COc1ccc(NS(=O)(=O)c2ccc3[nH]c(=O)ccc3c2)cc1OC | inactive | 
15 | CN(C)Cc1ccccc1-c1nc(NC2CC2)c2ccccc2n1 | inconclusive [inhibitor, single point] | 
16 | CSc1ccc(CN2CCC(C)(Oc3ccccc3)C2)cc1 (stereo unspecified) | inconclusive [inhibitor, single point] | 
17 | COc1ccc(/C=C2\Cc3ccccc3C2=O)cc1OC | inconclusive [inhibitor, partial curve] | 
18 | O=C(O)CCc1nn2c3ccccc3n(CC(=O)O)c2nc1=O | inconclusive [inhibitor, single point] | 
19 | CCOc1ccc(NC(=O)CN(C)C(=O)c2cccc3ccccc23)cc1OCC | inconclusive [inhibitor, single point] | 
20 | Cc1ccc2nc(-c3cccc(S(=O)(=O)N(C)C)c3)cn2c1 | inconclusive [inhibitor, single point] | 
21 | Clc1ccccc1C1=Nn2c(nnc2-c2ccco2)SC1 | inconclusive [inhibitor, partial curve, poor fit] | 
22 | Cc1ccccc1N(C(=O)Cn1nnc(-c2cccs2)n1)C(C(=O)NCCC(C)C)c1ccco1 (stereo unspecified) | inconclusive [inhibitor, single point] | 
23 | CCn1c(CSc2nc3ccccc3s2)nc2ccccc21 | active: 16.4 µM | 
24 | COc1cc(NC(=O)CCN2CCN(c3ccccc3F)CC2)cc(OC)c1 | inactive | 

Row | Compound | Potency | activity change, negative = growth inhibition
25 | O=C1CS(=O)(=O)C2(C(=O)N(Cc3ccccc3)c3ccccc32)N1c1ccc(F)c(Cl)c1 (stereo unspecified) | inconclusive [inhibitor, partial curve, poor fit] | 
26 | O=C(CNC(=S)N(Cc1ccccc1)Cc1cccnc1)NC1CC1 |  | inconclusive: -31.4% [inhibitor]
27 | Cn1c(=O)c2c(nc(Br)n2CCSc2nc3ccccc3o2)n(C)c1=O | inconclusive [inhibitor, single point] | 
28 | Cc1c(C(=O)NCc2cccc(F)c2)sc2ncnc(NCC3CCCO3)c12 (stereo unspecified) | inconclusive [inhibitor, single point] | 
29 | CCCCCn1cnnc1SCC(=O)c1c(N)n(C2CC2)c(=O)[nH]c1=O | inactive | 
30 | CCCCCn1nc(C)c(/C=N\NC(=O)c2cc(C)oc2C)c1C | inactive | 
31 | FC(F)(F)c1cnc(-c2cnc(-c3cccnc3)nc2)c(Cl)c1 | inactive | 
32 | Cn1c(SCC(=O)Nc2sc3c(c2C#N)CCC3)nnc1C1COc2ccccc2O1 (stereo unspecified) | inactive | 
33 | CCCCCCCCCC1NC(C(=O)O)Cc2c1[nH]c1ccccc21 (stereo unspecified) | inactive | 
34 | O=C(Nc1cccc(Cl)c1)c1cc(-c2ccc3c(c2)OCO3)on1 |  | inconclusive: -30.8% [inhibitor]
35 | Cc1ccc(NC(=O)C2CCN(c3ncnc4c3nc3n4CCCCC3)CC2)cc1Cl | inconclusive [inhibitor, single point] | 
36 | Cc1ccc(CCNC(=O)CN2C(=O)COc3ccc(S(=O)(=O)N4CCCCCC4)cc32)cc1 | active: 16.4 µM | 
37 | CCN(CC)c1nc(C=Cc2ccc(N(C)C)cc2)c2nccnc2n1 | active: 20.6 µM | 
38 | Cc1ccc(NNC(=O)c2c(C)noc2C)cc1Cl | inactive | 
39 | COc1ccc(Oc2ncc3nc(C)c(=O)n(Cc4ccc(F)cc4)c3n2)cc1 | active: 20.6 µM | 
40 | O=C(CCCOc1ccccc1)Nc1ccc2c(c1)OCCO2 | inactive | 
41 | CC(C)(C)OC(=O)n1cccc1/C=C1\c2ccccc2C(=O)N1c1ccccc1 | inconclusive [inhibitor, single point] | 
42 | O=C1CCc2cc(NS(=O)(=O)c3ccccc3)cc3c2N1CCC3 | inconclusive [inhibitor, single point] | 
43 | Cc1c(C(=O)N2CCCCC2)sc2ncnc(NCCc3ccccn3)c12 | inconclusive [inhibitor, single point] | 
44 | Cc1ccc(/C(O)=C2\C(=O)C(=O)N(C)C2c2ccc(F)cc2)cc1 (stereo unspecified) | inactive | 
45 | O=C(Nc1ccc(Cl)cc1)NC1CCCCC1Cc1ccco1 (stereo unspecified) | active: 18.4 µM | 
46 | CCOC(=O)C1=CCC(c2ccco2)N(S(=O)(=O)c2ccc(C)cc2)C1 (stereo unspecified) | inconclusive [inhibitor, single point] | 
47 | Cc1cccc(OCCCC(=O)Nc2ccc(S(N)(=O)=O)cc2)c1 | inconclusive [inhibitor, single point] | 
48 | Fc1ccccc1COc1ccc(Br)cc1CNCC1CCCO1 (stereo unspecified) | active: 14.6 µM | 

Row | Compound | Potency | activity change, negative = growth inhibition
49 | CO[C@H]1[C@H](NC(=O)c2ccco2)c2ccccc2C12CCN(Cc1ccc3cccc(F)c3n1)CC2 | inconclusive [inhibitor, single point] | 
50 | CCCCC(=O)c1ccc(O)cc1O |  | inconclusive: -29.1% [inhibitor]
51 | COc1ccccc1C(=O)Oc1c(Sc2ccccc2)c(C)nn1-c1ccccc1 | inconclusive [inhibitor, single point] | 
52 | Fc1cccc(/C=N/Nc2nc3ccccc3[nH]2)c1 | inconclusive [inhibitor, single point] | 
53 | COc1cc(OC)cc(C(=O)Nc2ccc3nc4n(c(=O)c3c2)CCCCC4)c1 | active: 20.6 µM and active: 11.6 µM | 
54 | O=C(c1ccco1)N1CCCN(Cc2nc(-c3ccc4c(c3)OCO4)no2)CC1 | active: 16.4 µM | 
55 | NC(=O)CSc1oc(-c2ccco2)nc1S(=O)(=O)c1ccc(F)cc1 | inactive | 
56 | O=C(c1cc(C(F)(F)F)cc(C(F)(F)F)c1)N1CCC2(CCCN(c3ncccn3)C2)CC1 | inconclusive [inhibitor, single point] | 
57 | COc1ccc(C(=O)C2CCN(C(=O)c3ccc(C)cc3)CC2)cc1 | inconclusive [inhibitor, single point] | 
58 | COc1ccccc1NC(C)C(=O)Nc1ccc(C(C)=O)cc1 (stereo unspecified) | active: 20.6 µM | 
59 | Cc1cc(=O)n2[nH]c(C)c(-c3ccc(Cl)cc3)c2n1 | inconclusive [inhibitor, single point] | 
60 | COc1ccc(-n2c(SCC(=O)NCc3ccco3)nnc2-c2c[nH]c3ccccc23)cc1 | inconclusive [inhibitor, single point] | 
61 | Cc1ccc(S(=O)(=O)N2CCCCC2)cc1C(=O)N(C)CC(=O)Nc1ccc(Cl)c(C(F)(F)F)c1 | inconclusive [inhibitor, single point] | 
62 | Cc1ccc(-n2ncc3c(N4CCCC4)ncnc32)c(C)c1 | inactive | 
63 | CCn1nc(NC(=O)c2ccco2)c2cc3ccc(C)cc3nc21 | inconclusive [inhibitor, single point] | 
64 | Cc1cccc(NC(=O)c2nc[nH]c2C(=O)NCCCNC(=O)c2[nH]cnc2C(=O)Nc2cccc(C)c2)c1 | inconclusive [inhibitor, single point] | 
65 | CC(C)n1ncc(N2CCOCC2)c(Cl)c1=O | inactive | 
66 | O=C(Nc1ccccc1C(=O)N1CCN(c2cccc(Cl)c2)CC1)C1=CSCCO1 | active: 20.6 µM | 
67 | O=c1c(CCc2ccccc2)nc2cnc(Nc3ccccc3)nc2n1Cc1cccs1 | inactive | 
68 | CCN(C(=O)c1ccc(NC(=O)c2ccco2)cc1)c1ccccc1 | inconclusive [inhibitor, single point] | 
69 | CCOC(=O)Cn1nc(NC(=O)c2ccc3c(c2)OCO3)cc1C | inconclusive [inhibitor, single point] | 
70 | Cc1cc(N2CCOCC2)ccc1/C=C1/SC(=O)NC1=O | inconclusive [inhibitor, single point] | 
71 | COc1ccc(C(=O)OCc2ccc(C)cc2)cc1S(=O)(=O)N1CCOCC1 | inconclusive [inhibitor, single point] | 
